Experimental data from patent US6583155B2, “Method for treating allergies using substituted pyrazoles” (priority 2000, dated 2003).

target: Recombinant human cathepsin S (CatS) (Homo sapiens, UniProt P25774); experiment: biochemical

`Cn1c(=O)n(C2CCN(C[C@H](O)Cn3nc(-c4ccc(C(F)(F)F)cc4)c4c3CCN(S(C)(=O)=O)C4)CC2)c2cc(Cl)ccc21` (stereo in doubt) [Example 39, 5-Chloro-3-(1-{2-hydroxy-3-[5-methanesulfonyl-3-(4-trifluoromethyl-phenyl)-4,5,6,7-tetrahydro-pyrazolo[4,3-c]pyridin-1-yl]-propyl}-piperidin-4-yl)-1-methyl-1,3-dihydro-benzoimidazol-2-one] and `Cn1c(=O)n(C2CCN(C[C@H](O)Cn3nc(-c4ccc(C(F)(F)F)cc4)c4c3CCN(S(C)(=O)=O)C4)CC2)c2ccccc21` [Example 30, (S)-1-(1-{2-Hydroxy-3-[5-methanesulfonyl-3-(4-trifluoromethyl-phenyl)-4,5,6,7-tetrahydro-pyrazolo[4,3-c]pyridin-1-yl]-propyl}-piperidin-4-yl)-3-methyl-1,3-dihydro-benzoimidazol-2-one] are the same in IC50: 40 nM for the first, 40 nM for the second.

Going from `CC(=O)N1CCc2c(c(-c3ccc(Cl)cc3)nn2CC(O)CN2CCC(Nc3ccccc3C#N)CC2)C1` (centres unmarked) [Example 1, 2-(1-{3-[5-Acetyl-3-(4-chloro-phenyl)-4,5,6,7-tetrahydro-pyrazolo[4,3-c]pyridin-1-yl]-2-hydroxy-propyl}-piperidin-4-ylamino)-benzonitrile] to `CC(=O)N1CCc2c(c(-c3ccc(C(F)(F)F)cc3)nn2CC(O)CN2CCC(Nc3nc4ccccc4s3)CC2)C1` (centres unmarked) [Example 16, 1-[1-{3-[4-(Benzothiazol-2-ylamino)-piperidin-1-yl]-2-hydroxy-propyl}-3-(4-trifluoromethyl-phenyl)-1,4,6,7-tetrahydro-pyrazolo[4,3-c]pyridin-5-yl]-ethanone], the IC50 falls from 730 nM to 300 nM (2.4-fold). The second is the more potent here.

`CC(=O)N1CCc2c(c(-c3ccc(C(F)(F)F)cc3)nn2CC(O)CN2CCC(n3c(=O)[nH]c4ccccc43)CC2)C1` (centres unmarked) [Example 2, 1-(1-{3-[5-Acetyl-3-(4-trifluoromethyl-phenyl)-4,5,6,7-tetrahydro-pyrazolo[4,3-c]pyridin-1-yl]-2-hydroxy-propyl}-piperidin-4-yl)-1,3-dihydro-benzoimidazol-2-one] and `CS(=O)(=O)N1CCc2c(c(-c3ccc(C(F)(F)F)cc3)nn2CC(O)CN2CCC(n3c(=O)[nH]c4ccccc43)CC2)C1` (centres unmarked) [Example 32, 1-(1-{2-Hydroxy-3-[5-methanesulfonyl-3-(4-trifluoromethyl-phenyl)-4,5,6,7-tetrahydro-pyrazolo[4,3-c]pyridin-1-yl]-propyl}-piperidin-4-yl)-1,3-dihydro-benzoimidazol-2-one] are within 1.5-fold of each other in IC50: 70 nM for the first, 60 nM for the second.

`CC(=O)N1CCc2c(c(-c3ccc(Br)cc3)nn2CC(O)CN2CCC(n3c(=O)oc4ccccc43)CC2)C1` (centres unmarked) [Example 3, 3-(1-{3-[5-Acetyl-3-(4-bromo-phenyl)-4,5,6,7-tetrahydro-pyrazolo[4,3-c]pyridin-1-yl]-2-hydroxy-propyl}-piperidin-4-yl)-3H-benzooxazol-2-one] and `CC(=O)N1CCc2c(c(-c3ccc(C(F)(F)F)cc3)nn2CC(O)CN2CCC(Oc3noc4ccccc34)CC2)C1` (centres unmarked) [Example 14, 1-[1-{3-[4-(Benzo[d]isoxazol-3-yloxy)-piperidin-1-yl]-2-hydroxy-propyl}-3-(4-trifluoromethyl-phenyl)-1,4,6,7-tetrahydro-pyrazolo[4,3-c]pyridin-5-yl]-ethanone] are within 1.5-fold of each other in IC50: 280 nM for the first, 290 nM for the second.

`CC(=O)N1CCc2c(c(-c3ccc(Cl)c(C)c3)nn2CC(O)CN2CCC(Oc3ccc(Cl)c(Cl)c3)CC2)C1` (centres unmarked) [Example 4] and `CC(=O)N1CCc2c(c(-c3ccc(Cl)c(C)c3)nn2C[C@@H](O)CN2CCC(n3c(=O)[nH]c4ccc(Cl)cc43)CC2)C1` [Example 6, (S)-1-(1-{3-[5-Acetyl-3-(4-chloro-3-methyl-phenyl)-4,5,6,7-tetrahydro-pyrazolo[4,3-c]pyridin-1-yl]-2-hydroxy-propyl}-piperidin-4-yl)-6-chloro-1,3-dihydro-benzoimidazol-2-one] are the same in IC50: 190 nM for the first, 190 nM for the second.

Compared with `CC(=O)N1CCc2c(c(-c3ccc(Cl)c(C)c3)nn2CC(O)CN2CCC(N3CCc4ccccc43)CC2)C1` (centres unmarked) [Example 5, 1-(3-(4-Chloro-3-methyl-phenyl)-1-{3-[4-(2,3-dihydro-indol-1-yl)-piperidin-1-yl]-2-hydroxy-propyl}-1,4,6,7-tetrahydro-pyrazolo[4,3-c]pyridin-5-yl)-ethanone], `CC(=O)N1CCc2c(c(-c3ccc(Cl)c(C)c3)nn2CC(O)CN2CCC(c3nc(-c4ccc(Cl)cc4)no3)CC2)C1` (centres unmarked) [Example 12, 1-[3-(4-Chloro-3-methyl-phenyl)-1-(3-{4-[3-(4-chloro-phenyl)-[1,2,4]oxadiazol-5-yl]-piperidin-1-yl}-2-hydroxy-propyl)-1,4,6,7-tetrahydro-pyrazolo[4,3-c]pyridin-5-yl]-ethanone] is 1.9-fold lower in IC50: 1160 nM for the first, 620 nM for the second. The second is the more potent here.

`CC(=O)N1CCc2c(c(-c3ccc(C(F)(F)F)cc3)nn2CC(O)CN2CCC(n3c(=O)n(CCN4CCOCC4)c4ccccc43)CC2)C1` (centres unmarked) [Example 7, 1-(1-{3-[5-Acetyl-3-(4-trifluoromethyl-phenyl)-4,5,6,7-tetrahydro-pyrazolo[4,3-c]pyridin-1-yl]-2-hydroxy-propyl}-piperidin-4-yl)-3-(2-morpholin-4-yl-ethyl)-1,3-dihydro-benzoimidazol-2-one] and `CC(=O)N1CCc2c(c(-c3ccc(C(F)(F)F)cc3)nn2CC(O)CN2CCC(c3nc4ccccc4[nH]3)CC2)C1` (centres unmarked) [Example 18] are within 1.5-fold of each other in IC50: 260 nM for the first, 250 nM for the second.

`CS(=O)(=O)N1CCc2c(c(-c3ccc(Br)cc3)nn2CC(O)CN2CCC(n3c(=O)[nH]c4ccc(Cl)cc43)CC2)C1` (centres unmarked) [Example 8, 1-(1-{3-[3-(4-Bromo-phenyl)-5-methanesulfonyl-4,5,6,7-tetrahydro-pyrazolo[4,3-c]pyridin-1-yl]-2-hydroxy-propyl}-piperidin-4-yl)-6-chloro-1,3-dihydro-benzoimidazol-2-one] and `CS(=O)(=O)N1CCc2c(c(-c3ccc(C(F)(F)F)cc3)nn2CCCN2CCC(n3c(=O)[nH]c4ccc(Cl)cc43)CC2)C1` [Example 35, 6-Chloro-1-(1-{3-[5-methanesulfonyl-3-(4-trifluoromethyl-phenyl)-4,5,6,7-tetrahydro-pyrazolo[4,3-c]pyridin-1-yl]-propyl}-piperidin-4-yl)-1,3-dihydro-benzoimidazol-2-one] are within 1.5-fold of each other in IC50: 40 nM for the first, 30 nM for the second.

Going from `CC(=O)N1CCc2c(c(-c3ccc(C(F)(F)F)cc3)nn2CC(O)CN2CCC(c3nc4cc(C(F)(F)F)ccc4s3)CC2)C1` (centres unmarked) [Example 13, 1-[1-{2-Hydroxy-3-[4-(5-trifluoromethyl-benzothiazol-2-yl)-piperidin-1-yl]-propyl}-3-(4-trifluoromethyl-phenyl)-1,4,6,7-tetrahydro-pyrazolo[4,3-c]pyridin-5-yl]-ethanone] to `CC(=O)N1CCc2c(c(-c3ccc(C(F)(F)F)cc3)nn2CC(O)CN2CCC(c3nc4cc(Cl)ccc4o3)CC2)C1` (centres unmarked) [Example 15, 1-[1-{3-[4-(5-Chloro-benzooxazol-2-yl)-piperidin-1-yl]-2-hydroxy-propyl}-3-(4-trifluoromethyl-phenyl)-1,4,6,7-tetrahydro-pyrazolo[4,3-c]pyridin-5-yl]-ethanone], the IC50 falls from 370 nM to 230 nM (1.6-fold). The second is the more potent here.

Compared with `CC(=O)N1CCc2c(c(-c3ccc(C(F)(F)F)cc3)nn2CC(O)CN2CCC(Oc3c(Cl)cncc3Cl)CC2)C1` (centres unmarked) [Example 17, 1-[1-{3-[4-(3,5-Dichloro-pyridin-4-yloxy)-piperidin-1-yl]-2-hydroxy-propyl}-3-(4-trifluoromethyl-phenyl)-1,4,6,7-tetrahydro-pyrazolo[4,3-c]pyridin-5-yl]-ethanone], `CS(=O)(=O)N1CCc2c(c(-c3ccc(C(F)(F)F)cc3)nn2CC(O)CN2CCC(n3ccc4ccc(Cl)cc43)CC2)C1` (centres unmarked) [Example 25, 1-[4-(6-Chloro-indol-1-yl)-piperidin-1-yl]-3-[5-methanesulfonyl-3-(4-trifluoromethyl-phenyl)-4,5,6,7-tetrahydro-pyrazolo[4,3-c]pyridin-1-yl]-propan-2-ol] is 5.7-fold lower in IC50: 1300 nM for the first, 230 nM for the second.

Going from `CS(=O)(=O)N1CCc2c(c(-c3ccc(C(F)(F)F)cc3)nn2CC(O)CN2CCC(N3c4ccc(Cl)cc4CNS3(=O)=O)CC2)C1` (centres unmarked) [Example 22, 1-[4-(6-Chloro-2,2-dioxo-3,4-dihydro-2H-2λ^6-benzo[1,2,6]thiadiazin-1-yl)-piperidin-1-yl]-3-[5-methanesulfonyl-3-(4-trifluoromethyl-phenyl)-4,5,6,7-tetrahydro-pyrazolo[4,3-c]pyridin-1-yl]-propan-2-ol] to `CS(=O)(=O)N1CCc2c(c(-c3ccc(C(F)(F)F)cc3)nn2CCCN2CCC(n3nnc4ccccc43)CC2)C1` [Example 26, 1-(1-{3-[5-Methanesulfonyl-3-(4-trifluoromethyl-phenyl)-4,5,6,7-tetrahydro-pyrazolo[4,3-c]pyridin-1-yl]-propyl}-piperidin-4-yl)-1H-benzotriazole], the IC50 rises from 30 nM to 180 nM (6-fold). The first is the more potent here.

Compared with `Cn1c(=O)n(C2CCN(CCCn3nc(-c4ccc(C(F)(F)F)cc4)c4c3CCN(S(N)(=O)=O)C4)CC2)c2ccccc21` [Example 27, 1-{3-[4-(3-Methyl-2-oxo-2,3-dihydro-benzoimidazol-1-yl)-piperidin-1-yl]-propyl}-3-(4-trifluoromethyl-phenyl)-1,4,6,7-tetrahydro-pyrazolo[4,3-c]pyridine-5-sulfonic Acid Amide], `CS(=O)(=O)N1CCc2c(c(-c3ccc(Cl)c(Cl)c3)nn2CCCN2CCC(n3c(=O)[nH]c4ccccc43)CC2)C1` [Example 33, 1-(1-{3-[3-(3,4-Dichloro-phenyl)-5-methanesulfonyl-4,5,6,7-tetrahydro-pyrazolo[4,3-c]pyridin-1-yl]-propyl}-piperidin-4-yl)-1,3-dihydro-benzoimidazol-2-one] is 9-fold lower in IC50: 90 nM for the first, 10 nM for the second. The second is the more potent here.

First: Cn1c(=O)n(C2CCN(CC(O)Cn3cc(-c4ccncc4)c(-c4ccc(C(F)(F)F)cc4)n3)CC2)c2cc(Cl)ccc21 (centres unmarked) [Example 28, 5-Chloro-3-(1-{2-hydroxy-3-[4-pyridin-4-yl-3-(4-trifluoromethyl-phenyl)-pyrazol-1-yl]-propyl}-piperidin-4-yl)-1-methyl-1,3-dihydro-benzoimidazol-2-one]
Second: NC(=O)N1CCc2c(c(-c3ccc(Cl)c(Cl)c3)nn2CCCN2CCC(n3c(=O)[nH]c4ccccc43)CC2)C1 [Example 34, 3-(3,4-Dichloro-phenyl)-1-{3-[4-(2-oxo-2,3-dihydro-benzoimidazol-1-yl)-piperidin-1-yl]-propyl}-1,4,6,7-tetrahydro-pyrazolo[4,3-c]pyridine-5-carboxylic Acid Amide]
The IC50 of the first is 44-fold higher: 890 nM for the first, 20 nM for the second. The second is the more potent here.
